Experimental data published in the supplement of paper PMC12230231.
± gives the standard deviation of the averaged measurements. Restriction of a single-cycle SIVsab GFP reporter by TRIM5α v1-loop variants in CRFK cells. Human variants: read share among cells still uninfected after two challenges over input, higher = gained restriction. Rhesus variants: share among infected cells over input, higher = lost restriction. Reporter dose not given per row. No active / inactive call per row; the paper calls a change when both replicates lie above its controls (mean + 2 SD of stop or wild-type variants, or the top frameshift score). Residues outside the varied loop are taken from Swiss-Prot. The paper reads the human single-substitution scores as noise; they and the rhesus combinations repeat poorly (rank correlation 0.3 to 0.4), indel scores repeat only for the top variants, rhesus substitutions well (0.9).

What follows are sequences tested on SIVsab (simian immunodeficiency virus of sabaeus monkeys), single-cycle GFP reporter, in CRFK cells (assay: enrichment among uninfected cells over input (fold); higher = stronger restriction). Details: library: human / rhesus combinations.
Method: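 Pools of CRFK cells expressing variants of the TRIM5α v1 loop were challenged with the single-cycle reporter, sorted by GFP and sequenced; mean of two replicates.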
“MASGILVNVKEEVTCPICLELLTQPLSLDCGHSFCQACLTANHKKSMLDKGESSCPVCRISYQPENIRPNRHVANIVEKLREVKLSPEGQKVDHCARHGEKLLLFCQEDGKVICWLCERSQEHRGHHTFLTEEVAREYQVKLQAALEMLRQKQQEAEELEADIREEKASWKTQIQYDKTNVLADFEQLRDILDWEESNELQNLEKEEEDILKSLTNSETEMVQQTQSLRELISDLEHRLQGSVMELLQGVDGVIKRTENVTLKKPETFPKNQRRVFRAPDLKGMLEVFRELTDVRRYWVDVTVAPNNISCAVISEDKRQVSSPKPQIIYQARGTLFTFPTLVNFNYCTGILGSQSITSGKHYWEVDVSKKTAWILGVCAGFQPDAMCNIEKNENYQPKYGYWVIGLEEGVKCSAFQDSSFHTPSVPFIVPLSVIICPDRVGVFLDYEACTVSFFNITNHGFLIYKFSHCSFSQPVFPYLNPRKCGVPMTLCSPSS [human TRIM5α, 330-340 = QARGTLFTFPTLV]” was tested, and the enrichment was 0.0733 ± 0.047.
In the case of “MASGILVNVKEEVTCPICLELLTQPLSLDCGHSFCQACLTANHKKSMLDKGESSCPVCRISYQPENIRPNRHVANIVEKLREVKLSPEGQKVDHCARHGEKLLLFCQEDGKVICWLCERSQEHRGHHTFLTEEVAREYQVKLQAALEMLRQKQQEAEELEADIREEKASWKTQIQYDKTNVLADFEQLRDILDWEESNELQNLEKEEEDILKSLTNSETEMVQQTQSLRELISDLEHRLQGSVMELLQGVDGVIKRTENVTLKKPETFPKNQRRVFRAPDLKGMLEVFRELTDVRRYWVDVTVAPNNISCAVISEDKRQVSSPKPQIIYGAPGTRYTFPTLVNFNYCTGILGSQSITSGKHYWEVDVSKKTAWILGVCAGFQPDAMCNIEKNENYQPKYGYWVIGLEEGVKCSAFQDSSFHTPSVPFIVPLSVIICPDRVGVFLDYEACTVSFFNITNHGFLIYKFSHCSFSQPVFPYLNPRKCGVPMTLCSPSS [human TRIM5α, 330-340 = GAPGTRYTFPTLV]”, the enrichment is reported as 0.049 ± 0.015.
Sequence “MASGILVNVKEEVTCPICLELLTQPLSLDCGHSFCQACLTANHKKSMLDKGESSCPVCRISYQPENIRPNRHVANIVEKLREVKLSPEGQKVDHCARHGEKLLLFCQEDGKVICWLCERSQEHRGHHTFLTEEVAREYQVKLQAALEMLRQKQQEAEELEADIREEKASWKTQIQYDKTNVLADFEQLRDILDWEESNELQNLEKEEEDILKSLTNSETEMVQQTQSLRELISDLEHRLQGSVMELLQGVDGVIKRTENVTLKKPETFPKNQRRVFRAPDLKGMLEVFRELTDVRRYWVDVTVAPNNISCAVISEDKRQVSSPKPQIIYQAPGTLFTFPSFVNFNYCTGILGSQSITSGKHYWEVDVSKKTAWILGVCAGFQPDAMCNIEKNENYQPKYGYWVIGLEEGVKCSAFQDSSFHTPSVPFIVPLSVIICPDRVGVFLDYEACTVSFFNITNHGFLIYKFSHCSFSQPVFPYLNPRKCGVPMTLCSPSS [human TRIM5α, 330-340 = QAPGTLFTFPSFV]” has an enrichment of 37.7 ± 15.

Same assay, conditions: library: insertions and deletions
“MASGILVNVKEEVTCPICLELLTQPLSLDCGHSFCQACLTANHKKSMLDKGESSCPVCRISYQPENIRPNRHVANIVEKLREVKLSPEGQKVDHCARHGEKLLLFCQEDGKVICWLCERSQEHRGHHTFLTEEVAREYQVKLQAALEMLRQKQQEAEELEADIREEKASWKTQIQYDKTNVLADFEQLRDILDWEESNELQNLEKEEEDILKSLTNSETEMVQQTQSLRELISDLEHRLQGSVMELLQGVDGVIKRTENVTLKKPETFPKNQRRVFRAPDLKGMLEVFRELTDVRRYWVDVTVAPNNISCAVISEDKRQVSSPRGTRYQTFVNFNYCTGILGSQSITSGKHYWEVDVSKKTAWILGVCAGFQPDAMCNIEKNENYQPKYGYWVIGLEEGVKCSAFQDSSFHTPSVPFIVPLSVIICPDRVGVFLDYEACTVSFFNITNHGFLIYKFSHCSFSQPVFPYLNPRKCGVPMTLCSPSS [human TRIM5α, 8-codon deletion at 324]” showed an enrichment of 0.514 ± 0.6.
“MASGILVNVKEEVTCPICLELLTQPLSLDCGHSFCQACLTANHKKSMLDKGESSCPVCRISYQPENIRPNRHVANIVEKLREVKLSPEGQKVDHCARHGEKLLLFCQEDGKVICWLCERSQEHRGHHTFLTEEVAREYQVKLQAALEMLRQKQQEAEELEADIREEKASWKTQIQYDKTNVLADFEQLRDILDWEESNELQNLEKEEEDILKSLTNSETEMVQQTQSLRELISDLEHRLQGSVMELLQGVDGVIKRTENVTLKKPETFPKNQRRVFRAPDLKGMLEVFRELTDVRRYWVDVTVAPNNISCAVISEDKRQVSSPKPQIIYGARGTRYQTFVNFNYCVNFNYCTGILGSQSITSGKHYWEVDVSKKTAWILGVCAGFQPDAMCNIEKNENYQPKYGYWVIGLEEGVKCSAFQDSSFHTPSVPFIVPLSVIICPDRVGVFLDYEACTVSFFNITNHGFLIYKFSHCSFSQPVFPYLNPRKCGVPMTLCSPSS [human TRIM5α, 6-codon duplication at 340]” was tested, and the enrichment was 0.6 ± 0.012.
For “MASGILVNVKEEVTCPICLELLTQPLSLDCGHSFCQACLTANHKKSMLDKGESSCPVCRISYQPENIRPNRHVANIVEKLREVKLSPEGQKVDHCARHGEKLLLFCQEDGKVICWLCERSQEHRGHHTFLTEEVAREYQVKLQAALEMLRQKQQEAEELEADIREEKASWKTQIQYDKTNVLADFEQLRDILDWEESNELQNLEKEEEDILKSLTNSETEMVQQTQSLRELISDLEHRLQGSVMELLQGVDGVIKRTENVTLKKPETFPKNQRRVFRAPDLKGMLEVFRELTDVRRYWVDVTVAPNNISCAVISEDKRQVSSPKPQIIYGAQIIYGARGTRYQTFVNFNYCTGILGSQSITSGKHYWEVDVSKKTAWILGVCAGFQPDAMCNIEKNENYQPKYGYWVIGLEEGVKCSAFQDSSFHTPSVPFIVPLSVIICPDRVGVFLDYEACTVSFFNITNHGFLIYKFSHCSFSQPVFPYLNPRKCGVPMTLCSPSS [human TRIM5α, 6-codon duplication at 326]”, the enrichment was 0.2918 ± 0.0029.
“MASGILVNVKEEVTCPICLELLTQPLSLDCGHSFCQACLTANHKKSMLDKGESSCPVCRISYQPENIRPNRHVANIVEKLREVKLSPEGQKVDHCARHGEKLLLFCQEDGKVICWLCERSQEHRGHHTFLTEEVAREYQVKLQAALEMLRQKQQEAEELEADIREEKASWKTQIQYDKTNVLADFEQLRDILDWEESNELQNLEKEEEDILKSLTNSETEMVQQTQSLRELISDLEHRLQGSVMELLQGVDGVIKRTENVTLKKPETFPKNQRRVFRAPDLKGMLEVFRELTDVRRYWVDVTVAPNNISCAVISEDKRQVSSPKPQIIYGARGTRYQTFLGSQSITSGKHYWEVDVSKKTAWILGVCAGFQPDAMCNIEKNENYQPKYGYWVIGLEEGVKCSAFQDSSFHTPSVPFIVPLSVIICPDRVGVFLDYEACTVSFFNITNHGFLIYKFSHCSFSQPVFPYLNPRKCGVPMTLCSPSS [human TRIM5α, 9-codon deletion at 340]” was tested, and the enrichment was 1.38 ± 0.39.
Work on “MASGILVNVKEEVTCPICLELLTQPLSLDCGHSFCQACLTANHKKSMLDKGESSCPVCRISYQPENIRPNRHVANIVEKLREVKLSPEGQKVDHCARHGEKLLLFCQEDGKVICWLCERSQEHRGHHTFLTEEVAREYQVKLQAALEMLRQKQQEAEELEADIREEKASWKTQIQYDKTNVLADFEQLRDILDWEESNELQNLEKEEEDILKSLTNSETEMVQQTQSLRELISDLEHRLQGSVMELLQGVDGVIKRTENVTLKKPETFPKNQRRVFRAPDLKGMLEVFRELTDVRRYWVDVTVAPNNISCAVISEDKRQVSSPKPQIIYGARGTRYQTFVQTFVNFNYCTGILGSQSITSGKHYWEVDVSKKTAWILGVCAGFQPDAMCNIEKNENYQPKYGYWVIGLEEGVKCSAFQDSSFHTPSVPFIVPLSVIICPDRVGVFLDYEACTVSFFNITNHGFLIYKFSHCSFSQPVFPYLNPRKCGVPMTLCSPSS [human TRIM5α, 4-codon duplication at 337]” yielded an enrichment of 2.36 ± 3.3.
